Measurements from PubChem BioAssay AID504832 (National Center for Advancing Translational Sciences (NCATS), 2011).
Where “and” joins values, the source holds several entries; their conditions need not be identical. Equal values may be shown once. Screen size: about 310,000 compounds; about 18,000 (5.8%) were called active. This list was built around the results that the source calls inconclusive (neither active nor inactive); the mix of calls is not that of the screen. Calls come from the whole dose curve; as a rule, active = well fitted inhibition curve with a large enough effect; inconclusive = small, poorly fitted or top-dose-only effect, or another doubt; inactive = no such curve, though single readings can be large or run the other way. Where the call is inconclusive, the potency comes from a doubtful curve fit.
% is set by controls: 0 for no effect and ±100 for the full control effect; potency is the fitted concentration of half-maximal effect; tags give direction and shape of the fitted curve.

Test: Primary qHTS for delayed death inhibitors of the malarial parasite plastid, 48 hour incubation
Details: P. falciparum luciferase growth in erythrocytes; series mostly up to 28.7 µM
How it was run: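 Cell-based growth assay: transgenic P. falciparum expressing firefly luciferase, cultured in red cells within RPMI 1640 containing 0.5% w/v Albumax, 24 mM bicarbonate and gentamycin. A drop in luciferase activity indicates inhibition.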
For COc1ccc(/C=C/c2c([N+](=O)[O-])c(=O)n(C)c(=O)n2C)cc1, the Potency was inconclusive: 8.28 µM [inhibitor, single point].
With COC(=O)c1[nH]c2cc(C)ccc2c1NC(=O)CN1CCN(C(=O)c2ccco2)CC1 the Potency was inconclusive: 11.7 µM [inhibitor, partial curve].
With N#Cc1ccc(Oc2ccc(C(F)(F)F)cc2NC(=O)c2ccc(F)cc2)cc1 the Potency was inconclusive: 9.28 µM [inhibitor, partial curve, poor fit].
With Cc1cc(C)cc(NC(=O)c2cccc(N3C(=O)C4C5C=CC(C5)C4C3=O)c2)c1 (stereo not drawn) the Potency was inconclusive: 4.65 µM [inhibitor, partial curve].
In the case of CC(C)(C)Nc1nc(OCC#N)nc(N2CCCCC2)n1, the Potency is reported as inconclusive: 0.828 µM [inhibitor, partial curve, poor fit].
For CN(C(=O)CSc1nc2ccc([N+](=O)[O-])cc2s1)C1CCS(=O)(=O)C1 (stereo not drawn), the Potency was inconclusive: 14.7 µM [inhibitor, single point].
In the case of COc1ccc(Nc2nc(NC(C)(C)C)nc(N3CCOCC3)n2)c(OC)c1, the Potency is reported as inconclusive: 13.1 µM [inhibitor, single point].
With CCN(CC)S(=O)(=O)c1ccc2c(c1)nc(SCc1nc3ccsc3c(=O)[nH]1)n2CC the Potency was inconclusive: 9.28 µM [inhibitor, single point].
For CCc1ccc2oc(C(=O)N3CCN(c4ccccc4OC)CC3)cc(=O)c2c1, the Potency was “inactive”.
With CC(C)C[C@H](NC(=O)c1nc[nH]c1C(=O)N[C@@H](CCCCNC(=O)OC(C)(C)C)C(=O)OC(C)(C)C)C(=O)OCc1ccccc1 the Potency was inconclusive: 1.65 µM [inhibitor, full curve, poor fit].
With O=C(NCCCn1ccnc1)c1ccc(OCC(F)(F)F)cc1 the Potency was “inactive”.
In the case of O=C(C[N+]12CCC(CC1)C(C(O)(c1ccccc1)c1ccccc1)C2)c1ccc(Br)cc1 (stereo not drawn), the Potency is reported as inconclusive: 14.7 µM [inhibitor, partial curve, poor fit].
In the case of C/C(=C\c1ccccc1)CN(C)CCN(C)C, the Potency is reported as inconclusive: 0.0033 µM [inhibitor, full curve, poor fit].
For COC(=O)CNC(=O)c1cn(CC(C)C)c(=O)c2cc(OC)c(OC)cc12, the Potency was “inactive”.
With Cc1nc2ccccn2c1-c1csc(Nc2ccc(C(=O)O)cc2)n1 the Potency was inconclusive: 9.28 µM [inhibitor, partial curve, poor fit].
In the case of Cc1cc(/C=C/C(=O)O)c(C)n1-c1ccc(Cl)cc1, the activity change, negative = inhibition is reported as inactive: -26.1% [at 1.15 µM].
With CCc1nnc(NC(=O)CCN2C(=O)/C(=C/c3cc(OC)c(OC)c(OC)c3)SC2=S)s1 the Potency was “inactive”.
With COc1ccc(C(=O)/C=C/N(C)C)cc1 the Potency was “inactive”.
In the case of N#Cc1ccc(OCC(=O)N2CCN(S(=O)(=O)c3ccc(Cl)s3)CC2)cc1, the Potency is reported as inconclusive: 13.1 µM [inhibitor, single point].
With Cc1ccccc1-c1n[nH]c(=S)n1/N=C/C=C/c1ccco1 the Potency was “inactive”.
For C=C(C)[C@@H](O)COc1c2ccoc2cc2oc(=O)ccc12, the Potency was inconclusive: 9.28 µM [inhibitor, partial curve, poor fit].
For O=C(NCC(c1ccco1)N1CCN(c2ccccc2)CC1)OCc1ccccc1 (stereo not drawn), the Potency was inconclusive: 10.4 µM [inhibitor, single point].
In the case of CCOc1ccc(OCC)c(NC(=O)C2CCCN(C(=O)c3ccc(Cl)cc3)C2)c1 (stereo not drawn), the Potency is reported as inconclusive: 13.1 µM [inhibitor, single point].
For CC1=C(C(N)=O)C(c2cccs2)NC(=O)N1 (stereo not drawn), the Potency was inconclusive: 18.5 µM [inhibitor, single point].
In the case of COc1cc(/C=N/NC(=O)[C@H](Cc2c[nH]c3ccccc23)NC(=O)OCC(C)C)cc([N+](=O)[O-])c1O, the Potency is reported as inconclusive: 10.4 µM [inhibitor, single point].
With CSc1n[nH]c(-c2sccc2OCc2ccc(C)cc2)n1 the Potency was inconclusive: 10.4 µM [inhibitor, single point].
In the case of Cc1c(O)ccc2c(=O)c(Oc3ccccc3)coc12, the Potency is reported as “inactive”.
With Cc1ccc(C(=O)NCCN2C3=NC[C@H](C)N3C[C@H]2Cc2ccc(O)cc2)cc1Br the Potency was inconclusive: 13.1 µM [inhibitor, single point].
With O=C(CSc1ncccn1)NC(=O)Nc1ccc2c(c1)OCCO2 the Potency was “inactive”.
With O=C(COC(=O)c1ccc(O)cc1O)Nc1ccc2ccccc2c1 the Potency was “inactive”.
In the case of O=C1NC(=Nc2cccc(O)c2)S/C1=C\c1cccnc1, the Potency is reported as inconclusive: 0.0185 µM [inhibitor, full curve, poor fit].
In the case of COC(=O)c1c(C(=O)OC)c(-c2ccc(C)cc2)n2c1CCC2, the Potency is reported as “inactive”.
In the case of O=C(NCc1ccc2c(c1)OCO2)c1ccc2c(=O)n(C3CCCC3)c(=O)[nH]c2c1, the Potency is reported as inconclusive: 4.15 µM [inhibitor, single point].
For O=P(Nc1ccccc1)(Nc1ccccc1)Oc1ccc(Cl)cc1, the Potency was inconclusive: 18.5 µM [inhibitor, single point].
With CN(C(=S)NC(=O)c1ccc(Cl)cc1)C1CCCCC1 the Potency was inconclusive: 14.7 µM [inhibitor, single point].
In the case of NC(N)=NC(=O)Cc1c(Cl)cccc1Cl, the Potency is reported as inconclusive: 8.49 µM [inhibitor, partial curve, poor fit] and inconclusive: 5.22 µM [inhibitor, partial curve].
For COc1ccccc1NC(=O)C1CCN(S(=O)(=O)c2ccc3c(c2)NC(=O)CO3)CC1, the Potency was inconclusive: 8.28 µM [inhibitor, partial curve].
For CCn1c(CN(C)c2ccccc2)nc2ccccc21, the Potency was inconclusive: 7.38 µM [inhibitor, partial curve, poor fit].
With Cc1nn(-c2ccccn2)c2c1C(=O)CC(C)(C)C2Br (stereo not drawn) the Potency was active: 14.7 µM.
In the case of COc1ccc(C=O)cc1CSc1ccccn1, the Potency is reported as “inactive”.
With CC(C)(C)c1cc(Cl)ccc1OCCn1ccnc1 the Potency was active: 5.86 µM.
In the case of COc1ccc(/C=N/NC(=S)NCc2ccccc2)cc1OC, the Potency is reported as “inactive”.
With COc1ccc(C)cc1NC(=O)CN(Cc1nnc(-c2ccc(Cl)cc2)o1)C1CCCC1 the Potency was active: 10.4 µM.
With COc1cccc(C(=O)NC2CC3CCCC(C2)N3S(=O)(=O)c2ccccc2)c1 (stereo not drawn) the Potency was inconclusive: 14.7 µM [inhibitor, single point].
In the case of Cc1onc(-c2ccccc2)c1C(=O)NNC(=S)NC(=O)c1ccc2c(c1)OCO2, the Potency is reported as “inactive”.
For O=C(CSc1nnc(-c2cccnc2)n1-c1ccc(F)cc1)NCc1ccc2c(c1)OCO2, the Potency was inconclusive: 18.5 µM [inhibitor, single point].
For O=S(=O)(/N=C(\c1ccccc1)N1CCOCC1)c1cccs1, the Potency was “inactive”.
With CCOc1cc(N2CCOCC2)c(OCC)cc1NC(=O)CN1C(=O)NC2(CCCCC2)C1=O the Potency was inconclusive: 4.65 µM [inhibitor, full curve, poor fit].
For CCOC(=O)C1(CCc2ccccc2)CCN(Cc2ccc(C(=O)OC)cc2)CC1, the Potency was inconclusive: 10.4 µM [inhibitor, single point].
In the case of CC(C)(C)NC(=O)C(c1ccc(O)cc1)N(C(=O)Cn1nnc(-c2ccc(F)cc2)n1)c1ccccc1F (stereo not drawn), the Potency is reported as active: 11.7 µM.
For Clc1ccccc1Cn1nnc2c(N3CCOCC3)nc(C3CC3)nc21, the Potency was inconclusive: 10.4 µM [inhibitor, single point].
With O=C(COc1ccccc1)Nc1ccc2c(c1)Cc1cc(NC(=O)COc3ccccc3)ccc1-2 the Potency was “inactive”.
In the case of CCN(CC(=O)NCc1cccs1)C(=O)c1ccc(NS(=O)(=O)c2ccc(C(C)=O)cc2)cc1, the Potency is reported as “inactive”.
With Cc1c(C(=O)OCc2nc3ccsc3c(=O)[nH]2)oc2ccccc12 the Potency was “inactive”.
In the case of CCCNC(=O)Cn1c(=O)n(C)c2ccccc21, the Potency is reported as “inactive”.
For CC(=O)c1ccc(NC(=O)CCS(=O)(=O)c2ccc3c(c2)n(C)c(=O)c(=O)n3C)cc1, the Potency was “inactive”.
With CCC1=NN(C(=O)c2ccc([N+](=O)[O-])cc2)C(O)(c2ccccc2)C1 (stereo not drawn) the Potency was inconclusive: 10.4 µM [inhibitor, single point].
In the case of CC(C)Oc1cccc(C(=O)NC(=S)Nc2ccccc2N2CCOCC2)c1, the Potency is reported as inconclusive: 18.5 µM [inhibitor, single point].
For CCC(O)CNC(=O)NC(=C(Cl)Cl)c1ccc(C)c(F)c1 (stereo not drawn), the Potency was inconclusive: 18.5 µM [inhibitor, partial curve, poor fit].
For CC(=O)Nc1nnc(SCc2ccc(F)cc2)s1, the Potency was “inactive”.
For CCOC(=O)c1sc(NC(=O)C(CC)Sc2nnc3c4ccccc4n(CC)c3n2)nc1C (stereo not drawn), the Potency was inconclusive: 13.1 µM [inhibitor, single point].
With Cc1ccc2cc(C#N)c(N3CCCN(C(=O)C4CCCO4)CC3)nc2c1 (stereo not drawn) the Potency was active: 2.94 µM.
For COc1ccccc1CNCC(=O)Nc1ccc(N2CCOCC2)cc1, the Potency was “inactive”.
With COC(=O)c1ccc2c(=O)n(Cc3ccc(C(=O)NCCCN4CCC(C)CC4)cc3)c(=S)[nH]c2c1 the Potency was inconclusive: 14.7 µM [inhibitor, single point].
For COc1ccc(CN2CCn3ncc(C(=O)Nc4cc(C)cc(C)c4)c3C2=O)cc1, the Potency was inconclusive: 16.5 µM [inhibitor, single point].
In the case of Cc1cccc(COCC(Cc2ccccc2)N2CCN(C(=O)c3ccc(C(F)(F)F)cc3)CCC2=O)c1 (stereo not drawn), the Potency is reported as inconclusive: 8.28 µM [inhibitor, partial curve, poor fit].
For Fc1cc(F)c(C2SCCN2C(=S)Nc2cccc(C(F)(F)F)c2)c(F)c1 (stereo not drawn), the Potency was inconclusive: 1.47 µM [inhibitor, full curve, poor fit].
With CC1Cc2ccccc2N1C(=O)CSc1nncs1 (stereo not drawn) the Potency was “inactive”.
